# Experimental data published in the supplement of paper PMC8728848.
# The list shows a part of the results.
# What was measured:
# Experiment in all cases: glycan array binding signal (z-score within array); higher = stronger binding
# Settings in all cases: glycan notation: IUPAC condensed, linker removed
# [1] = target: Gal(b1-4)GlcNAc(b1-3)Gal(b1-4)GlcNAc(b1-2)[Gal(b1-4)GlcNAc(b1-3)Gal(b1-4)GlcNAc(b1-6)]Man(a1-6)[Gal(b1-4)GlcNAc(b1-3)Gal(b1-4)GlcNAc(b1-2)Man(a1-3)]Man(b1-4)GlcNAc(b1-4)GlcNAc
# Outline: (§1)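 The Consortium for Functional Glycomics database supplied 3228 glycan arrays, of which those lacking an available protein sequence were dropped. The binding signal, a within-array Z-score, was averaged across arrays of the same protein sequence and across linkers. Negative scores can be read as non-binding.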
# [2] = target: Gal(b1-4)GlcNAc(b1-3)Gal(b1-4)GlcNAc(b1-2)[Gal(b1-4)GlcNAc(b1-3)Gal(b1-4)GlcNAc(b1-6)]Man(a1-6)[Gal(b1-4)GlcNAc(b1-3)Gal(b1-4)GlcNAc(b1-2)Man(a1-3)]Man(b1-4)GlcNAc(b1-4)[Fuc(a1-6)]GlcNAc
# Outline: as §1
# [3] = target: Gal(b1-4)GlcNAc(b1-3)Gal(b1-4)GlcNAc(b1-3)Gal(b1-4)GlcNAc
# Outline: as §1
# [4] = target: Gal(b1-4)GlcNAc(b1-3)Gal(b1-4)GlcNAc(b1-3)Gal(b1-4)GlcNAc(b1-2)Man(a1-3)[Gal(b1-4)GlcNAc(b1-3)Gal(b1-4)GlcNAc(b1-3)Gal(b1-4)GlcNAc(b1-2)Man(a1-6)]Man(b1-4)GlcNAc(b1-4)GlcNAc
# Outline: as §1
# [5] = target: Gal(b1-4)GlcNAc(b1-3)Gal(b1-4)GlcNAc(b1-3)Gal(b1-4)GlcNAc(b1-2)Man(a1-3)[Gal(b1-4)GlcNAc(b1-3)Gal(b1-4)GlcNAc(b1-3)Gal(b1-4)GlcNAc(b1-2)Man(a1-6)]Man(b1-4)GlcNAc(b1-4)[Fuc(a1-6)]GlcNAc
# Outline: as §1
# [6] = target: Gal(b1-4)GlcNAc(b1-3)Gal(b1-4)GlcNAc(b1-3)Gal(b1-4)GlcNAc(b1-2)[Gal(b1-4)GlcNAc(b1-3)Gal(b1-4)GlcNAc(b1-3)Gal(b1-4)GlcNAc(b1-6)]Man(a1-6)[Gal(b1-4)GlcNAc(b1-3)Gal(b1-4)GlcNAc(b1-3)Gal(b1-4)GlcNAc(b1-2)Man(a1-3)]Man(b1-4)GlcNAc(b1-4)[Fuc(a1-6)]GlcNAc
# Outline: as §1
# [7] = target: Gal(b1-4)GlcNAc(b1-3)Gal(b1-4)GlcNAc(b1-3)Gal(b1-4)GlcNAc(b1-3)Gal(b1-4)GlcNAc(b1-2)Man(a1-3)[Gal(b1-4)GlcNAc(b1-3)Gal(b1-4)GlcNAc(b1-3)Gal(b1-4)GlcNAc(b1-3)Gal(b1-4)GlcNAc(b1-2)Man(a1-6)]Man(b1-4)GlcNAc(b1-4)GlcNAc
# Outline: as §1
# [8] = target: Gal(b1-4)GlcNAc(b1-3)Gal(b1-4)GlcNAc(b1-3)Gal(b1-4)GlcNAc(b1-3)Gal(b1-4)GlcNAc(b1-2)Man(a1-3)[Gal(b1-4)GlcNAc(b1-3)Gal(b1-4)GlcNAc(b1-3)Gal(b1-4)GlcNAc(b1-3)Gal(b1-4)GlcNAc(b1-2)Man(a1-6)]Man(b1-4)GlcNAc(b1-4)[Fuc(a1-6)]GlcNAc
# Outline: as §1
# [9] = target: Gal(b1-4)GlcNAc(b1-3)Gal(b1-4)GlcNAc(b1-3)Gal(b1-4)GlcNAc(b1-3)Gal(b1-4)GlcNAc(b1-2)[Gal(b1-4)GlcNAc(b1-3)Gal(b1-4)GlcNAc(b1-3)Gal(b1-4)GlcNAc(b1-3)Gal(b1-4)GlcNAc(b1-6)]Man(a1-6)[Gal(b1-4)GlcNAc(b1-3)Gal(b1-4)GlcNAc(b1-3)Gal(b1-4)GlcNAc(b1-3)Gal(b1-4)GlcNAc(b1-2)Man(a1-3)]Man(b1-4)GlcNAc(b1-4)[Fuc(a1-6)]GlcNAc
# Outline: as §1
# [10] = target: Gal(b1-4)GlcNAc(b1-3)Gal(b1-4)GlcNAc(b1-3)Gal(b1-4)GlcNAc(b1-3)Gal(b1-4)GlcNAc(b1-3)Gal(b1-4)GlcNAc(b1-2)Man(a1-3)[Gal(b1-4)GlcNAc(b1-3)Gal(b1-4)GlcNAc(b1-3)Gal(b1-4)GlcNAc(b1-3)Gal(b1-4)GlcNAc(b1-3)Gal(b1-4)GlcNAc(b1-2)Man(a1-6)]Man(b1-4)GlcNAc(b1-4)GlcNAc
# Outline: as §1
# [11] = target: Gal(b1-4)GlcNAc(b1-3)Gal(b1-4)GlcNAc(b1-3)Gal(b1-4)GlcNAc(b1-3)Gal(b1-4)GlcNAc(b1-3)Gal(b1-4)GlcNAc(b1-2)Man(a1-3)[Gal(b1-4)GlcNAc(b1-3)Gal(b1-4)GlcNAc(b1-3)Gal(b1-4)GlcNAc(b1-3)Gal(b1-4)GlcNAc(b1-3)Gal(b1-4)GlcNAc(b1-2)Man(a1-6)]Man(b1-4)GlcNAc(b1-4)[Fuc(a1-6)]GlcNAc
# Outline: as §1
# [12] = target: Gal(b1-4)GlcNAc(b1-3)Gal(b1-4)GlcNAc(b1-3)Gal(b1-4)GlcNAc(b1-3)Gal(b1-4)GlcNAc(b1-3)Gal(b1-4)GlcNAc(b1-2)[Gal(b1-4)GlcNAc(b1-3)Gal(b1-4)GlcNAc(b1-3)Gal(b1-4)GlcNAc(b1-3)Gal(b1-4)GlcNAc(b1-3)Gal(b1-4)GlcNAc(b1-6)]Man(a1-6)[Gal(b1-4)GlcNAc(b1-3)Gal(b1-4)GlcNAc(b1-3)Gal(b1-4)GlcNAc(b1-3)Gal(b1-4)GlcNAc(b1-3)Gal(b1-4)GlcNAc(b1-2)Man(a1-3)]Man(b1-4)GlcNAc(b1-4)[Fuc(a1-6)]GlcNAc
# Outline: as §1
# [13] = target: Gal(b1-4)GlcNAc(b1-3)Gal(b1-4)GlcNAc(b1-3)Gal(b1-4)GlcNAc(b1-3)Gal(b1-4)GlcNAc(b1-3)Gal(b1-4)GlcNAc(b1-3)Gal(b1-4)GlcNAc(b1-2)Man(a1-3)[Gal(b1-4)GlcNAc(b1-3)Gal(b1-4)GlcNAc(b1-3)Gal(b1-4)GlcNAc(b1-3)Gal(b1-4)GlcNAc(b1-3)Gal(b1-4)GlcNAc(b1-3)Gal(b1-4)GlcNAc(b1-2)Man(a1-6)]Man(b1-4)GlcNAc(b1-4)GlcNAc
# Outline: as §1
# [14] = target: Gal(b1-4)GlcNAc(b1-3)Gal(b1-4)GlcNAc(b1-3)GalNAc
# Outline: as §1
# [15] = target: Gal(b1-4)GlcNAc(b1-3)Gal(b1-4)GlcNAc(b1-3)[Gal(b1-4)GlcNAc(b1-3)Gal(b1-4)GlcNAc(b1-6)]GalNAc
# Outline: as §1
# [16] = target: Gal(b1-4)GlcNAc(b1-3)Gal(b1-4)GlcNAc(b1-6)[Gal(b1-3)]GalNAc
# Outline: as §1
# [17] = target: Gal(b1-4)GlcNAc(b1-3)Gal(b1-4)[Fuc(a1-3)]GlcNAc(b1-3)Gal(b1-4)[Fuc(a1-3)]GlcNAc
# Outline: as §1
# [18] = target: Gal(b1-4)GlcNAc(b1-3)GalNAc
# Outline: as §1
# [19] = target: Gal(b1-4)GlcNAc(b1-3)[Fuc(a1-3)GlcNAc(b1-6)]Gal(b1-4)Glc
# Outline: as §1
# [20] = target: Gal(b1-4)GlcNAc(b1-3)[Gal(b1-4)GlcNAc(b1-6)]Gal(b1-4)GlcNAc
# Outline: as §1
# [21] = target: Gal(b1-4)GlcNAc(b1-3)[GlcNAc(b1-6)]Gal(b1-4)GlcNAc
# Outline: as §1
# [22] = target: Gal(b1-4)GlcNAc(b1-6)Gal(b1-4)GlcNAc
# Outline: as §1
# [23] = target: Gal(b1-4)GlcNAc(b1-6)GalNAc
# Outline: as §1
# [24] = target: Gal(b1-4)GlcNAc(b1-6)[Gal(b1-3)]GalNAc
# Outline: as §1
# [25] = target: Gal(b1-4)GlcNAc(b1-6)[Gal(b1-4)GlcNAc(b1-3)]GalNAc
# Outline: as §1
# Gal(b1-4)GlcNAc6P = target: Gal(b1-4)GlcNAc6P
# Outline: as §1
# Gal(b1-6)Gal = target: Gal(b1-6)Gal
# Outline: as §1
# Gal3S(b1-3)GalNAc = target: Gal3S(b1-3)GalNAc
# Outline: as §1
# Gal3S(b1-3)GlcNAc = target: Gal3S(b1-3)GlcNAc
# Outline: as §1
# [26] = target: Gal3S(b1-3)[Fuc(a1-4)]GlcNAc
# Outline: as §1
# Gal3S(b1-4)Glc = target: Gal3S(b1-4)Glc
# Outline: as §1
# Gal3S(b1-4)Glc6S = target: Gal3S(b1-4)Glc6S
# Outline: as §1
# Gal3S(b1-4)GlcNAc = target: Gal3S(b1-4)GlcNAc
# Outline: as §1
# [27] = target: Gal3S(b1-4)[Fuc(a1-3)]Glc6S
# Outline: as §1
# [28] = target: Gal3S(b1-4)[Fuc(a1-3)]GlcNAc
# Outline: as §1
# [29] = target: Gal3S(b1-4)[Fuc(a1-3)]GlcNAc6S
# Outline: as §1
# Gal3S4S(b1-4)GlcNAc = target: Gal3S4S(b1-4)GlcNAc
# Outline: as §1
# Gal3S6S(b1-4)GlcNAc = target: Gal3S6S(b1-4)GlcNAc
# Outline: as §1
# Gal3S6S(b1-4)GlcNAc6S = target: Gal3S6S(b1-4)GlcNAc6S
# Outline: as §1
# Gal4S(b1-4)GlcNAc = target: Gal4S(b1-4)GlcNAc
# Outline: as §1
# Gal4S6S(b1-4)GlcNAc = target: Gal4S6S(b1-4)GlcNAc
# Outline: as §1
# Gal6P(b1-4)GlcNAc = target: Gal6P(b1-4)GlcNAc
# Outline: as §1
# Gal6S(b1-3)GlcNAc = target: Gal6S(b1-3)GlcNAc
# Outline: as §1
# Gal6S(b1-3)GlcNAc6S = target: Gal6S(b1-3)GlcNAc6S
# Outline: as §1
# Gal6S(b1-4)Glc = target: Gal6S(b1-4)Glc
# Outline: as §1
binder,measurement,setting,value
rCnSL-proB (Clitocybe nebularis) (protein) PTFSPIFALLAFLPFGTLASLLPQTQLVFRINPNLPGPNDVFVGYRGTNNVVGAIYERDGIKDTPMNNGADAELGPGSYITDDLFTAQIFASGSAGNNPGTTATVCKIYADGVQWRGAPKGYLPVLYFGNGQAAEQTRQTYLQGLDIPGTAIRFANLAKTPNQGPTAPRQMVVPSGGLQTLLKASCFPANHAALPQVLSYFNVRAALPPGWNIRTGPEFPNWTN,glycan array binding signal (z-score),[1],2.11
same,glycan array binding signal (z-score),[2],2.75
same,glycan array binding signal (z-score),[3],0.2
same,glycan array binding signal (z-score),[4],4.18
same,glycan array binding signal (z-score),[5],1.76
same,glycan array binding signal (z-score),[6],2.8
same,glycan array binding signal (z-score),[7],0.567
same,glycan array binding signal (z-score),[8],2.28
same,glycan array binding signal (z-score),[9],1.91
same,glycan array binding signal (z-score),[10],0.922
same,glycan array binding signal (z-score),[11],0.375
same,glycan array binding signal (z-score),[12],1.24
same,glycan array binding signal (z-score),[13],3.08
same,glycan array binding signal (z-score),[14],2.15
same,glycan array binding signal (z-score),[15],4.08
same,glycan array binding signal (z-score),[16],0.225
same,glycan array binding signal (z-score),[17],0.088
same,glycan array binding signal (z-score),[18],0.187
same,glycan array binding signal (z-score),[19],0.474
same,glycan array binding signal (z-score),[20],-0.283
same,glycan array binding signal (z-score),[21],-0.395
same,glycan array binding signal (z-score),[22],-0.308
same,glycan array binding signal (z-score),[23],0.179
same,glycan array binding signal (z-score),[24],-0.464
same,glycan array binding signal (z-score),[25],-0.173
same,glycan array binding signal (z-score),Gal(b1-4)GlcNAc6P,-3.32
same,glycan array binding signal (z-score),Gal(b1-6)Gal,-0.226
same,glycan array binding signal (z-score),Gal3S(b1-3)GalNAc,-0.249
same,glycan array binding signal (z-score),Gal3S(b1-3)GlcNAc,-0.565
same,glycan array binding signal (z-score),[26],-0.319
same,glycan array binding signal (z-score),Gal3S(b1-4)Glc,-0.12
same,glycan array binding signal (z-score),Gal3S(b1-4)Glc6S,-0.37
same,glycan array binding signal (z-score),Gal3S(b1-4)GlcNAc,-0.913
same,glycan array binding signal (z-score),[27],0.549
same,glycan array binding signal (z-score),[28],0.039
same,glycan array binding signal (z-score),[29],-0.332
same,glycan array binding signal (z-score),Gal3S4S(b1-4)GlcNAc,-0.739
same,glycan array binding signal (z-score),Gal3S6S(b1-4)GlcNAc,-0.09
same,glycan array binding signal (z-score),Gal3S6S(b1-4)GlcNAc6S,-0.244
same,glycan array binding signal (z-score),Gal4S(b1-4)GlcNAc,-0.447
same,glycan array binding signal (z-score),Gal4S6S(b1-4)GlcNAc,-0.412
same,glycan array binding signal (z-score),Gal6P(b1-4)GlcNAc,-0.143
same,glycan array binding signal (z-score),Gal6S(b1-3)GlcNAc,-0.094
same,glycan array binding signal (z-score),Gal6S(b1-3)GlcNAc6S,-0.486
same,glycan array binding signal (z-score),Gal6S(b1-4)Glc,-0.537
